We go through 76 molecules from PubChem BioAssay AID1508624 (National Center for Advancing Translational Sciences (NCATS), 2021).

Where “and” joins values, the source holds several entries; their conditions need not be identical. Equal entries are not always repeated. The campaign covered roughly 48,000 compounds. About 120 (0.25%) were called active. Inconclusive results (about 4%) are left out. The call rests on the fitted dose curve; in most records, active means well fitted activation curve with a large enough effect; inconclusive means small, poorly fitted or top-dose-only effect, or another doubt; inactive means no such curve, though single readings can be large or run the other way. This is one part of the list.

This experiment is described as follows: Primary qHTS for Identification of Small Molecule Activators of Huntingtin-Antisense Promoter Activity. Further: nearly all actives have a fitted effect of over 55% in size. To be noted: HEK293 HTT-AS promoter firefly luciferase reporter, 24 h; at 57.5 µM (top of the series) unless noted. Put shortly:
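Quantitative HTS used concentration series of up to 57.5 uM final on HEK293 luciferase reporter cells, 24 h at 37 degrees C. Readout was Dual-Glo firefly luminescence.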
Background: Quantitative high-throughput screening tests each substance at several concentrations.
As to `O=S(=O)(O)C(F)(F)C(F)(F)C(F)(F)C(F)(F)F`, the activity change, positive = activation was inactive: -4.97% [at 116 µM].
The result for `CC(=O)N1CC(=O)Nc2ccc(F)cc2C1c1ccccc1` (stereo unspecified) reads inactive: 1.46%; that for `CCC12CN3CC(CC)(CN(C1)C3c1ccccn1)C2=O` (stereo unspecified), inactive: 0.831%.
The result for `CCCCCCCCC(=O)NCc1ccc(O)c(OC)c1` reads inactive: -8.92%; that for `CCCSc1nc2ccccc2c(=O)n1-c1ccccc1OC`, inactive: -31.9%.
Regarding `COP(=S)(OC)Oc1cc(Cl)c(Cl)cc1Cl`, the activity change, positive = activation was inactive: -2.14%.
The result for `Cc1cc(C)cc(-n2c(=O)[nH]c3ccccc3c2=O)c1` reads inactive: 18.2% [at 57.5 µM, percent change from vehicle, -100% = no light].
The result for `O=C(O)c1ccc(=O)[nH]c1` reads inactive: -1.68%; that for `CCN(CC)C(=O)c1ccc(C2=CC3(CCNCC3)Oc3cccc(O)c32)cc1`, inactive: -3.13%.
`O=C1CC(c2ccc(Br)cc2)c2c(c3ccccc3oc2=O)O1` (stereo unspecified): the activity change, positive = activation is inactive: -9.54% [at 57.5 µM, percent change from vehicle, -100% = no light].
Consider `C[C@H]1CCCC=CC2C[C@H](O)C[C@@H]2[C@H](O)C=CC(=O)O1` (stereo partly specified), for which the activity change, positive = activation is inactive: -35.6%.
On to `O=C(Nc1ccon1)c1cccn(Cc2cccc(Cl)c2)c1=O`, for which the activity change, positive = activation is inactive: -16.2% [at 57.5 µM, percent change from vehicle, -100% = no light].
The result for `CC[N+]1(CC)CCC(OC(=O)C(O)(c2ccccc2)c2ccccc2)C1` (stereo unspecified) reads inactive: -8.92%.
On to `O=c1[nH]c2ccccc2c(=O)n1-c1ccc(Cl)c(Cl)c1`, for which the activity change, positive = activation is inactive: 4.16% [at 57.5 µM, percent change from vehicle, -100% = no light].
The result for `Cc1cccc(NC(=O)Cn2cc(C(=O)c3ccccc3)c3ccccc32)c1C` reads inactive: -35.4%.
As to `Cc1oc(-c2ccc(Cl)cc2)nc1CN1C(=O)CN=C(c2ccccc2)c2ccccc21`, the activity change, positive = activation was inactive: -25.6%.
With `C=CCC1([C@H](C)CCC)C(=O)NC(=O)NC1=O` the figure was inactive: -17.2% [at 116 µM]; with `O=C(Nc1ccon1)c1cccn(Cc2ccccc2)c1=O`, inactive: 3.26% [at 57.5 µM, percent change from vehicle, -100% = no light]; with `CC[C@H]1C[C@@H]2C[C@H]3c4[nH]c5ccc(OC)cc5c4CCN(C2)[C@@H]13`, inactive: -15.3% [at 116 µM].
With `C[C@]12CCC(=O)C(O)=C1CC[C@@H]1[C@@H]2CC[C@]2(C)C(=O)CC[C@@H]12` the figure was inactive: -12%.
Regarding `COc1ccc(/C=C/c2nc3ccccc3c(=O)n2-c2ccc(C)cc2)cc1O`, the activity change, positive = activation is inactive: -15.3% [at 57.5 µM, percent change from vehicle, -100% = no light].
With `OC(O)C(Cl)(Cl)Cl` the figure was inactive: 0.285%; with `CNC(C)(C)Cc1ccccc1`, inactive: -4.87%; with `CCOP(=S)(OCC)Oc1cc(C)nc(C(C)C)n1`, inactive: -4.96%.
With `c1ccc(C2CC2)c(OCC2=NCCN2)c1` the figure was inactive: -8.3%; with `Cc1cccc(-n2c(/C=C/c3cn(C)c4ccccc34)nc3ccccc3c2=O)c1`, inactive: -31%; with `COCC(=O)N(c1c(C)cccc1C)C(C)C(=O)OC` (stereo unspecified), inactive: -5.58% [at 57.5 µM, percent change from vehicle, -100% = no light].
The result for `Cc1ccc(-c2nc(CN3C(=O)CN=C(c4ccccc4)c4cc(Cl)ccc43)c(C)o2)cc1` reads inactive: -27.1% [at 57.5 µM, percent change from vehicle, -100% = no light]; that for `Cc1cc(NC(=O)c2cccn(Cc3cccc(Cl)c3)c2=O)no1`, inactive: -14% [at 57.5 µM, percent change from vehicle, -100% = no light].
Turning to `O=C(O)CCCOc1ccc(Cl)cc1Cl`, the activity change, positive = activation is inactive: 2.68% [at 116 µM].
With `O=C(COc1cccc(Cl)c1)N1CCN(CCc2ccncc2)CC1` the figure was inactive: -16.4%.
The result for `CCCN(CCC)c1c([N+](=O)[O-])cc(S(N)(=O)=O)cc1[N+](=O)[O-]` reads inactive: -40.8% [at 116 µM]; that for `CC(=Cc1csc(C)n1)[C@@H]1C[C@H]2O[C@@H]2CCC[C@H](C)[C@@H](O)[C@@H](C)C(=O)C(C)(C)[C@@H](O)CC(=O)O1`, inactive: -29.2%.
With `Cc1ccc(Cn2cccc(C(=O)Nc3cc([N+](=O)[O-])ccc3C)c2=O)cc1` the figure was inactive: 0.461% [at 57.5 µM, percent change from vehicle, -100% = no light]; with `O=S1(=O)N(Cc2ccccc2)CCCN1Cc1cccc(Cl)c1`, inactive: -19%.
With `CNCC(O)c1ccc(O)cc1` (stereo unspecified), the activity change, positive = activation is inactive: -14.4% and inactive: 1.38%.
The result for `CC(C)NCC(O)c1ccc(N)c(C#N)c1` (stereo unspecified) reads inactive: -4.06%; that for `CCC(OC(C)=O)C(CC(C)NC)(c1ccccc1)c1ccccc1` (stereo unspecified), inactive: -28.3% [at 116 µM].
The result for `CC(Cc1ccccc1)NCCCCl` (stereo unspecified) reads inactive: -1.66%.
With `N#Cc1cc2c(nc1SCC(=O)Nc1ccc(OC(F)(F)F)cc1)C1CCN2CC1` the figure was inactive: -51.1%.
Regarding `O=C(COc1ccccc1Cl)N1CCN(CCc2ccncc2)CC1`, the activity change, positive = activation is inactive: -21.9%.
With `O=C(CCc1nc(C2=CCN(Cc3cccc(Cl)c3)CC2)no1)Nc1ccccc1F` the figure was inactive: -12.7%; with `C[C@]12CCC(=O)C=C1CC[C@@H]1[C@@H]2CC[C@@]2(C)[C@H]1CC[C@]2(C)O`, inactive: -26.5%; with `CCS(=O)(=O)C(C)(C)S(=O)(=O)CC`, inactive: -13.7%.
The result for `CN(C)CCc1c[nH]c2cccc(OP(=O)(O)O)c12` reads inactive: -16% [at 116 µM].
With `Cc1cccc(NC(=O)Cn2cc(C(=O)c3ccccc3)c3ccccc32)c1` the figure was inactive: -45.3%; with `O=c1c2ccccc2nc(/C=C\c2ccc(F)cc2)n1-c1ccccc1F`, inactive: -27.6%.
Take `O=c1[nH]c2cc(Cl)ccc2n1C1CCNCC1`: the activity change, positive = activation was inactive: -5.63%.
With `c1ccc(CCCN2CCN(CCOC(c3ccccc3)c3ccccc3)CC2)cc1` the figure was inactive: -28.5%.
Consider `CC(=O)NS(=O)(=O)c1ccc(NC(=O)c2cccn(Cc3ccc(Cl)cc3)c2=O)cc1`, for which the activity change, positive = activation is inactive: -11.1% [at 57.5 µM, percent change from vehicle, -100% = no light].
The result for `COc1ccc(OCC(=O)N2CCN(Cc3cc(=O)n4nc(-c5ccccc5C)sc4n3)CC2)cc1` reads inactive: -19.3%; that for `Clc1cccc(SC2CCNCC2)n1`, inactive: -1.54%; that for `CCOC(=O)c1ncn2c1CN(C)C(=O)c1c(I)cccc1-2`, inactive: -0.0584%.
`O=C(O)Cc1ccccc1`: the activity change, positive = activation was inactive: -8.12%.
With `COc1ccc(C(=O)c2c(C)n(CCN3CCOCC3)c3ccccc23)cc1` the figure was inactive: -2.35% and inactive: -31.5%; with `c1cc2c(c(N3CCNCC3)c1)OCCO2`, inactive: -3.6%.
The result for `CN1C(=O)[C@@H](NC(=O)c2cc3ccccc3[nH]2)N=C(c2ccccc2)c2ccccc21` reads inactive: -45.6%.
The result for `NP(N)(=O)NC(=O)c1ccc(F)cc1` reads inactive: 2.15%.
Regarding `O=c1c2ccccc2nc(/C=C/c2cccc3ccccc23)n1-c1ccccc1Cl`, the activity change, positive = activation was inactive: -10.6%.
Consider `CC[n+]1c(-c2ccccc2)c2cc(N)ccc2c2ccc(N)cc21`, for which the activity change, positive = activation was inactive: -37.8%.
With `COc1ccc(Cl)cc1NC(=O)CN1C(=O)CN=C(c2ccccc2)c2cc(Cl)ccc21` the figure was inactive: -44.1%; with `Cc1ccc(-n2c(/C=C/c3ccc(Br)s3)nc3ccccc3c2=O)cc1`, inactive: -28.5%; with `CCCCC1C(=O)NC(=O)N(C2CCCCC2)C1=O` (stereo unspecified), inactive: -10.2%.
With `Cc1cccc(-n2c(/C=C/c3ccccc3O)nc3ccccc3c2=O)c1` the figure was inactive: -38%; with `CCc1ccc(NC(=O)c2cccn(Cc3cccc([N+](=O)[O-])c3)c2=O)cc1`, inactive: -16.3%.
With `Cc1[nH]nc2ccc(-c3cncc(OC[C@@H](N)Cc4c[nH]c5ccccc45)c3)cc12` the figure was inactive: -43%.
For `CO[C@H]1CCC(O[C@H]2C[C@H]([C@]3(C)CC[C@]4(C[C@H](O)[C@@H](C)[C@@H]([C@@H](C)C=C(C)C(=O)[C@H](C)C[C@H](C)C(=O)O)O4)O3)O[C@]3(O[C@@H]([C@H]4O[C@@](O)(CO)[C@H](C)C[C@H]4C)C[C@H]3C)[C@H]2C)O[C@H]1C` (stereo partly specified), the activity change, positive = activation was inactive: -29.1%.
As to `O=c1c2ccccc2nc(/C=C\c2ccccc2F)n1-c1ccc(O)cc1`, the activity change, positive = activation was inactive: -8.04% [at 57.5 µM, percent change from vehicle, -100% = no light].
With `C[C@]12CC[C@H]3[C@@H](CCC4=CC(=O)CC[C@@]43C)[C@@H]1CC[C@@H]2C(=O)O` the figure was inactive: -1.46%; with `Cc1c(C(c2ccc(Cl)cc2Cl)c2c(O)c3ccccc3oc2=O)c(=O)n(-c2ccccc2)n1C` (stereo unspecified), inactive: -27.5%; with `CCCCc1ccc(NC(=O)c2cccn(Cc3ccc(Cl)cc3)c2=O)cc1`, inactive: -50.4%.
The result for `COc1ccc(C(CN(C)C)C2(O)CCCCC2)cc1` (stereo unspecified) reads inactive: 1.19% and inactive: -25.3%; that for `Cc1ccc(OCC(=O)N2CCN(CCc3ccncc3)CC2)cc1C`, inactive: 0.548%; that for `COc1ccc(C(=O)Nc2ccc(Cl)cc2C(=O)c2ccccc2)c(OC)c1`, inactive: -53.2% [at 57.5 µM, percent change from vehicle, -100% = no light].
On to `Cc1ccccc1CN1C(=O)CN=C(c2ccccc2)c2cc(Cl)ccc21`, for which the activity change, positive = activation is inactive: -44.8%.
The result for `Cc1ccc(-n2c(/C=C/c3cc(Br)cs3)nc3ccccc3c2=O)cc1` reads inactive: -15.1%.
